In all, about 360,000 compounds went through this assay and about 6,000 (1.7%) were called active. Inconclusive results, whose numbers are uncertain, are shown with a selection of clear calls. The call rests on the fitted dose curve; in most records, active means well fitted cell-killing curve with a large enough effect; inconclusive means small, poorly fitted or top-dose-only effect, or effect the other way; inactive means flat fitted curve, though single readings scatter. No potency is given beside an inconclusive call; the fits are too rough.
Experiment: qHTS for induction of synthetic lethality in tumor cells producing 2HG: qHTS for the HT-1080-NT fibrosarcoma cell line;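 further: NT is the 2HG producing partner of a matched IDH1 knockdown line; nearly all actives have a fitted effect of over 55% in size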;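 on activity, negative = less viability: 0% = DMSO-treated cells and -100% = media-only wells without cells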
Conditions: HT-1080-NT fibrosarcoma viability, CellTiter-Glo ATP luminescence, 48 h; activity, negative = less viability: at 46.1 µM (top of the series) unless noted
Method in brief: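 Compounds were tested in concentration-response format on HT-1080-NT cells for 48 hours at 37 degrees C. Cell viability came from CellTiter-Glo luminescence; curves were classified by r2, response magnitude and activity.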
Potency means the concentration at half of the fitted maximal effect; tags describe the fitted curve by direction and shape.

Row | Structure (SMILES) | Potency | activity, negative = less viability
1 | Cc1ccc(-c2ccc(/C=N\NC(=O)c3cc4c(ccc5ccccc54)o3)o2)cc1[N+](=O)[O-] | inconclusive [rising, single point] | 
2 | CC(=O)c1ccc(N2CCN(C(=S)Nc3cccc(F)c3)CC2)cc1 | inconclusive [cytotoxic, single point] | 
3 | CCn1c(C)c(C)c2cc(C(=O)N3CCc4ccccc4C3)ccc21 | inconclusive [cytotoxic, single point] | 
4 | CCOC(=O)C(C(=O)Nc1ccc(C)cc1)C1CCCCC1 (stereo not drawn) | inconclusive [cytotoxic, single point] | 
5 | COc1cccc(C(O)c2nc(/C=C/c3ccc(C(F)(F)F)cc3)cs2)c1 (stereo not drawn) | inconclusive [cytotoxic, single point] | 
6 | CCCC(C(=O)NC(C)(C)C)N(CCN1CCOCC1)C(=O)CNS(=O)(=O)c1ccccc1 (stereo not drawn) | inconclusive [rising, single point] | 
7 | COC(=O)C1=C(COc2ccccc2)NC(=O)NC1c1ccc(Br)cc1 (stereo not drawn) |  | inactive: -5.86%
8 | COc1ccc(-c2nc3cnccn3c2Nc2ccc3c(c2)OCO3)cc1 |  | inactive: -12.6%
9 | O=C(Nc1cc2c(cc1Cl)OCCO2)c1ccco1 |  | inconclusive: 6.35%
10 | O=c1[nH]c(CSc2nnc(COc3ccccc3)n2-c2ccccc2)nc2ccccc12 | inconclusive [cytotoxic, single point] | 
11 | CCc1ccc(N(CC(=O)NC(C)(C)C)C(=O)CNC(=O)c2cccs2)cc1 |  | inactive: 7.85%
12 | O=S(=O)(c1ccc2ccccc2c1)N1CCN(C(=S)Nc2ccc(F)c(Cl)c2)CC1 |  | inactive: -21.7%
13 | Cc1ccc(NC(=O)c2ccc(F)c(S(=O)(=O)N3CCOCC3)c2)cc1F | inconclusive [cytotoxic, single point] | 
14 | COc1ccc(OC)c(CCNC(=O)c2cccc(NC(=O)C3=C(C)OCCS3)c2)c1 | inconclusive [cytotoxic, single point] | 
15 | Cc1ccccc1-c1cnc(C(O)c2ccc(C(C)(C)C)cc2)[nH]1 (stereo not drawn) | inconclusive [cytotoxic, single point] | 
16 | CCN1C(=O)c2cccc3c(S(=O)(=O)N(C(=O)c4cccnc4)c4ccc(OC)cc4)ccc1c23 | inconclusive [cytotoxic, single point] | 
17 | Cc1ccc(NC(=O)c2nc[nH]c2C(=O)Nc2ccccc2F)cc1 | inconclusive [rising, single point] | 
18 | Cc1ccc(C(=O)c2coc3c2C(=O)C(=O)c2ccccc2-3)cc1 | inconclusive [cytotoxic, single point] | 
19 | COc1ccc(F)c(CN2CCCC(CNS(=O)(=O)c3cccc4cccnc34)C2)c1 (stereo not drawn) |  | inactive: -11.9%
20 | CC(OC(=O)c1cccs1)C(=O)NC1CC1 (stereo not drawn) |  | inactive: 1.81%
21 | O=C(CSc1ccc(-c2cccnc2)nn1)Nc1ccc(Br)cc1 | inconclusive [cytotoxic, single point] | 
22 | CCCCCn1c(=N)n(CC(O)COc2ccccc2OC)c2ccccc21 (stereo not drawn) | inconclusive [cytotoxic, single point] | 
23 | O=C(c1cccnc1)N1N=C2CCCCCC2C1(O)C(F)(F)F (stereo not drawn) |  | inactive: -2.48%
24 | CC#CCN1C=C(C(=O)OCC)C(C)N(Cc2ccc(Br)cc2)S1(=O)=O (stereo not drawn) |  | inactive: -8.94%
25 | O=C(CSc1nnc(-c2ccccc2O)o1)N1CCOCC1 |  | inactive: 2.58%

Row | Structure (SMILES) | Potency | activity, negative = less viability
26 | O=C(CCC(=O)c1ccc(-c2ccccc2)cc1)Nc1cccnc1 |  | inactive: 7.14%
27 | O=C(O)[C@H](Cc1ccccc1)NC(=O)N1CCN(c2ccccc2)CC1 |  | inactive: -5.97%
28 | CCOc1cc(CN2CCN(CCOCCO)CC2)ccc1OC |  | inactive: -2.41%
29 | COC(=O)c1c(NC(=O)c2ccccc2[N+](=O)[O-])sc2c1CC(C)(C)NC2(C)C | inconclusive [cytotoxic, single point] | 
30 | O=S(=O)(c1ccccc1)N1CCc2ccccc21 |  | inconclusive: 17.1%
31 | CCOc1ccc(OCCC(=O)OCC(=O)NCc2ccccc2)cc1 |  | inactive: -4.64%
32 | CC1=CC2=NC(=O)/C(=C/c3cccs3)C(=N)N2O1 |  | inactive: -1.92%
33 | COc1ccc(CC2(CO)CCN(Cc3cc4ccccc4o3)CC2)cc1 | inconclusive [cytotoxic, single point] | 
34 | Cc1c(C(=O)Nc2ccc(-n3cnnn3)cc2)oc2ccccc12 | inconclusive [cytotoxic, single point] | 
35 | Cc1cccnc1C(NC(=O)C1CCN(Cc2ccc(Cl)cc2)CC1)c1ccccc1 (stereo not drawn) | inconclusive [cytotoxic, single point] | 
36 | CCn1nnc(NC(=O)c2ccc([N+](=O)[O-])o2)n1 | inconclusive [cytotoxic, single point] | 
37 | Cc1cnc(NC(=O)CCc2ccccc2)s1 | inconclusive [cytotoxic, single point] | 
38 | CCCCCCCCC(=O)N1C(C)CCC1C (stereo not drawn) |  | inactive: 3.54%
39 | O=C1CCCN1Cc1ccccc1 | inconclusive [rising, single point] | 
40 | O=C(COC(=O)c1cccc(Br)c1)NC(=O)NC1CCCC1 | inconclusive [cytotoxic, single point] | 
41 | OC(c1ccccc1)c1nc(-c2ccc(Cl)cc2)cs1 (stereo not drawn) | inconclusive [cytotoxic, single point] | 
42 | COc1ccc(/C=N/Nc2ncnc3sc4c(c23)CCCC4)cc1OC | inconclusive [cytotoxic, single point] | 
43 | Cc1cc(C)c(C)c(S(=O)(=O)NCCCn2ccnc2)c1C | inconclusive [cytotoxic, single point] | 
44 | Cc1cc(C)c(C(O)c2ncc(-c3ccccc3Cl)[nH]2)c(C)c1 (stereo not drawn) | inconclusive [cytotoxic, single point] | 
45 | CC(Oc1ccccc1)C(=O)N(CCC1=CCCCC1)c1c(N)n(Cc2ccccc2)c(=O)[nH]c1=O (stereo not drawn) | active: 23.1 µM | 
46 | COc1ccc(C(=O)NNC(=S)NC(=O)c2cccs2)cc1 | inconclusive [cytotoxic, partial curve] | 
47 | CCOC(=O)Oc1ccc2oc(C)c(C(=O)OCCOC)c2c1 |  | inactive: -4.58%
48 | Cc1cc(N2CCCC2=O)cc(C)c1S(=O)(=O)NCCOc1ccccc1 | inconclusive [cytotoxic, single point] | 
49 | COc1ccc(C(=O)Nc2ccc(NC(=O)Cc3ccccc3)cn2)cc1 |  | inactive: -17%
50 | CC(C)(C)c1cc(CCC(=O)NNC(=S)NC(=O)c2ccccc2)cc(C(C)(C)C)c1O | active: 14.6 µM | 

Row | Structure (SMILES) | Potency | activity, negative = less viability
51 | COc1cc(NS(=O)(=O)c2ccc3ccccc3c2)c2ncccc2c1 |  | inconclusive: -14.8% [cytotoxic]
52 | N#Cc1ccc(NC(=O)C2CC(c3ccc(F)cc3)=NO2)cc1 (stereo not drawn) | inconclusive [cytotoxic, partial curve, poor fit] | 
53 | CCN(CC(=O)Nc1c(F)cccc1F)C(=O)CCN1C(=O)C2CC=CCC2C1=O (stereo not drawn) |  | inconclusive: 6.65% [cytotoxic]
54 | CCOC(=O)C1(CC2CC2)CCN(Cc2ccc(C(=O)OC)cc2)CC1 |  | inactive: -0.544%
55 | Cc1ccccc1C(=O)Nc1cccc(NC(=O)Cn2cnc3c(=O)n(C)c(=O)n(C)c32)c1 | inconclusive [cytotoxic, single point] | 
56 | COc1ccc(NC(=O)CSc2ncnc3[nH]ncc23)cc1 | inconclusive [cytotoxic, single point] | 
57 | C=CC[C@@H](CC(=O)N(CCO)Cc1ccccc1)C(=O)NC[C@H](OC(=O)[C@@H](CC=C)Cc1ccc(F)cc1)c1ccccc1 | inconclusive [cytotoxic, single point] | 
58 | CCOc1ccc(-c2cnc3cccnn23)cc1 |  | inconclusive: 20.9%
59 | COc1ccc(Cl)cc1N1C(=O)CN(Cc2cc(OC)c(OC)c(OC)c2)C1=S |  | inactive: -1.95%
60 | CCC(=O)N(CCC(Cc1ccccc1)c1ccc2c(c1)OCO2)Cc1ccccc1F (stereo not drawn) | inconclusive [cytotoxic, single point] | 
61 | O=C1NC(=S)SC1=Cc1ccccc1Cl | inconclusive [cytotoxic, partial curve] | 
62 | Cc1ccc(Cl)c(OCCCCN(C)Cc2ccccc2)c1 | inconclusive [cytotoxic, single point] | 
63 | Cc1ccc(NC(=S)N2CCN(c3ccccc3F)CC2)c(C)c1 |  | inactive: -2.07%
64 | CCN(CC)CCNCc1cc(Cl)ccc1OCc1ccccc1F | active: 23.1 µM | 
65 | Cc1ccc(C(=O)C[n+]2cc(-c3ccc(C)cc3)n3c2CCCCC3)cc1 | active: 13 µM | 
66 | CCc1nnc(SCc2cn3c(C)cc(C)nc3n2)n1N |  | inactive: 16.9%
67 | COc1ccc(C2CC(=O)C3=C(C2)NC(C)=C(C(=O)Nc2ccccc2C)C3c2coc3ccc(C)cc3c2=O)cc1OC (stereo not drawn) |  | inactive: -25.6%
68 | C=CCn1c(Cc2cccs2)nnc1SCC(=O)Nc1cc(OC)cc(OC)c1 |  | inactive: -5.04%
69 | COc1cc(-c2cnc3c(NC=O)cc(-c4cccc(C(F)(F)F)c4)cn23)cc(OC)c1OC | inconclusive [cytotoxic, full curve] | 
70 | C#CCNC(=O)C[C@@H]1C[C@@]2(C(=O)OCC)CCC=C2N(Cc2ccc(Cl)cc2Cl)C1=O | inconclusive [cytotoxic, single point] | 
71 | COc1ccc(OC[C@@H](O)CNC(=O)c2cccc3c2C(=O)c2ccc(Cl)cc2S3(=O)=O)cc1 |  | inactive: -2.47%
72 | COc1ccc(-c2nc3c(C)cc(Br)cn3c2Cc2cccc(Cl)c2)cc1OC | inconclusive [cytotoxic, single point] | 
73 | COc1ccccc1OCC(=O)N/N=C(\C)c1ccc2ccccc2c1 | inconclusive [cytotoxic, single point] | 

Reference: PubChem BioAssay AID686970 (National Center for Advancing Translational Sciences (NCATS), 2013)
